PubChem BioAssay (NCI)
A structure can be active in one record and inactive in another.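 Compound tested at a single concentration for 48 hours in 96-well plates; a percent growth value below 10 was scored as active.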 The source holds more than one record for some entries. This is not the full list of results. An entry can have further records. The screen tested this drug many times, at its own concentration, as given; one value stands for one run. Marks such as (2×) give the number of equal values in this list.

Test system: MOLT-4 leukemia
Assay: NCI-60 one-dose screen, 48 h (100 = growth as untreated, 0 = no growth, -100 = all killed)

Structure (SMILES): COc1cccc2c1C(=O)c1c(O)c3c(c(O)c1C2=O)C[C@@](O)(C(=O)CO)C[C@@H]3OC1CC(N)C(O)C(C)O1 (stereo not given in full)
- growth (0.25 µM, runs of 2018): inactive: 17.1, 19.5, 15.5, 14.2 (3×), 11.9 (2×), 13.4 (2×), 12, 10.4, 14.5, 13.3, 10.6 (2×), 17.2 (2×), 12.2 (3×), 18.8, 16.6, 14.9, 16.3, 23.3, 13.5, 16.2, 16.4, 21.5, 15.2, 16, 11.7, 10.7 (2×), 11.4 (2×), 13.9, 14.1, 12.6, 15.8, 12.7, 18.5, 26.8, 23.2% and active: 9.34, 9.55, 8.48, 4.52, 9.94, 6.99, 7.86%
- growth (0.25 µM, runs of 2019): inactive: 16.5, 11.4, 11.9, 10.6 (3×), 10.3, 10.7, 16, 10.1, 18.4, 27.1, 17, 14.5, 13.5, 21.1, 13.6 (2×), 17.8, 12.9 (2×), 14.8, 16.2 (2×), 14.2, 15.6, 15.2, 14.6, 13.9% and active: 6.17, 1.97, 9.01, 5.34, 6.93, 6.25, 9.93, 8.3, 9.38, 6.64, 9.88, 7.31, 9.31%
- growth (0.25 µM, runs of 2020): active: -3.22, 8.51, 9.06, 6.69, 9.16, 7.23% and inactive: 10.8, 12.4, 10.7, 12.5, 13, 11.9, 14.8, 15.7, 17.1, 18.6, 12.6, 17, 18.9, 13.6, 13.1, 16.5%
- growth (0.25 µM, runs of 2021): active: 7.6 (2×), -1.82, 8.75, 7.98, 5.44, 7.56, 8.6, 5.41, 6.02, 6.59, 5.94, 2.3, 8.67, 8.66, 5.48, 8.24, 8.92, 5.19, 8.71% and inactive: 18.1 (2×), 13.3, 15.3 (3×), 11.4, 20.4, 17.9, 14.3, 15.6, 15.8, 11.8, 12.4 (2×), 10.7, 16.6, 15.1 (2×), 17.4, 12.6, 13.2, 10.8 (2×), 13, 12.2, 12.7, 11.5, 12.5, 15.5%
- growth (0.25 µM, runs of 2022): inactive: 20.2 (2×), 24.8, 21.8 (2×), 20.4, 15.1, 36.3, 28.2, 28.4, 21.1, 14.6, 21.3, 16.1, 25.9% and active: -12.4, -3.59, -5.33, 4.11, 1, 8.43, 6.63, 7.98, 6.21%
- growth (25 µM, runs of 1991): active: -29.3, -15.7, -9.63, -8.48, -29.1, -42.9, -37.9, -19.9, -39.8, -34.5, -19.5, -24, -5.22, -8.58, 0.936, -30.7, -26% and inactive: 10.8%
- growth (25 µM, runs of 1992): active: -6.96, -33.5 (3×), -23.8, -44.8, -51.5, -18.9, -53.3, -32.7, -44.5, -39.7 (2×), -56.1, -54.7, -40.4, -32.2, -23.1, -31.5 (2×), -25.4, -34.9, -37.9 (2×), -34.3, -14, -42.4 (3×), -28.6, -7.66, -24.1, -31.8 (2×), 0.395, -18.4, -35.5 (2×), -16.7, -35.7, -34.7, 1.17, 1.57, -10, 4.12, -24.8, -20.9, -41.4, -40.1, -22.7, -27.3, -29, -16.2, 9.77, -43.3, -36.8, -40.8, -44.9, -0.338, -16.6, -44.7, -42.1, -47, -34.5, -28.8, -19.5, -41.2, -8.7, -20.5, -21.8, -35.8, -40.2, -40.5, -39.1, -43.6 (2×), -27.2, -11.4, -32, -63.1, 3.1, -25 (2×), -50.1, -38.7 (2×), -57.6, -51.6, -57.4, -38.8, 1.01, -44, -32.9, -22.6, -42.5, 2.96, -55.6, -30.1, -33.9, -25.5, -46.3, -36.2, -38.3 (2×), -10.7, -45.8, -49.7, -100, -23.4, 7.28, -47.9, -24.4, -28.5 (2×), -6.8, -12.4, -45.2, -27.1% and inactive: 11.6%, 17.7%
- growth (25 µM, runs of 1993): active: -34.5, -26.2, -27.6 (2×), -29.9, -52.4, -48.4, -16.9, 1.89, -40.6, -31.7, 0.995, -44.8 (2×), -26.9, -40.2, -23.1, 5.51, -39.1, -18.9, -27.8 (2×), -20, -49.8, -27.1, -47.3, 0.941, -41.5, -47, 9.09, -15.5, -50.3, -47.7, -48.8, 9.92, -25.9, -45.8, -38.6, -0.107, -0.839% and inactive: 16.6, 11.3, 14, 28.3, 44.2, 21.3, 33.2%
- growth (25 µM, runs of 1994): active: -57.3, -51.9, -60.1, -0.183, 5.15, -29.8, -45.1, -20.5, -10.7, -41.4, -27.4, -86.8, -34.1, 0.462, -26.4, -47.4, -27.3, -49.5, -27.9, -34.6, -30.6, -8.58, -4.2, -56.3, -8.27, -28.3, 1.51, -27, -52.5, -44% and inactive: 32.5%, 20.5%
- growth (25 µM, runs of 1995): active: -36.8, 5.67, 2.9, -31.5, -24.6, -9.85, -24.2, -30.4, -50, -8.77, -18.5 (2×), -14.4, -11.4, -20, -24.7, -16.7, -17.9, -45.2, -30.6, 8.81, -11.6, -28.5, -40.6, -38.8, -2.24, -25.7, -3.94, -41.6, -38.4, 1.43, -44.1, -49.8, -29.2, -35.3, -45.6, -59.1, -42.8%
- growth (25 µM, runs of 1996): active: -42.3 (2×), -21.1, -41.4, -0.152, -59.8, -31.3, 1.96, -43.5, -33.5, -47.1, -31.9 (2×), -44.4, -89.1, -42.7, -41.3, -49.4, 1.56, -28, -37.3, -24.8, -44.6, -38.3, -32.6, -9.17, -33.7, -37, -23.5, 0.2, -67.8, -52.1, -28.9, -12, -52.8, 7.96, -15.2, -32.5, -31.5, -35.8, -45.9, -24.2, -69.4, -48.2, -29.3% and inactive: 97.6, 13.2, 44.6, 11.9%
- growth (25 µM, runs of 1997): active: -38.8, -30.3, -18.6, -33.5, -24.8, -7.39, -51.9, -48.4, -44.1, -0.974, -19.4, -26.6, -36.2, -55.9, -11.4, 4.47, -58.5, 5.09, -34.3, 2.55, -5.71, -47.9, -5.42, -4.98, -39, 6.58, -8.04, -20.9, 1.84, -46, -33.1, -29.2, -40.1, -28% and inactive: 15.2, 14.1, 15.1, 12.9, 59.4%
- growth (25 µM, runs of 1998): active: -7.6, -15.2, -20, -7.74, -16, -51.6, -40.7, -53.6, -88.3, -5.95, 1.58, -64.1, 0.496, -30.6, -14.4, -9.22, 0.727, -9.35, -86.5, -35.3, -48.4, -62.5, -44% and inactive: 17%, 87.1%
- growth (25 µM, runs of 1999): active: -29.3, -1.61, -32.6, 3.78, -17.4, -56.2, 3.44, -32.5, -62.4, 5.32, 6.52, -92.6, 4.03% and inactive: 22.4%, 10.3%, 10.8%
- growth (25 µM, runs of 2000): active: -100, 6.87, 8.29, 6.16%
